According to the supplement of paper PMC11417369:
Some of the results follow.

These sequences were tested on PfSIP2 AP2 domain 1 (GST-tagged) (assay: gcPBM binding intensity (ln(normalized median fluorescence intensity)); higher = stronger DNA binding).
Outline: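 An Agilent 4 × 180k array of primer-extended double-stranded 36-bp intergenic genomic probes, with negative controls, was incubated for 1 h with GST-tagged P. falciparum DNA-binding domains expressed in E. coli. Alexa488 anti-GST antibody detected bound protein, scanned at 488 nm. Binding intensity is the highest Masliner-normalised natural-log median intensity across replicate spots of either probe orientation.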

Point of comparison: “TTTTTTTTTTTATGCTCACACATTAATTTTTATACA [CACACA_site4527]”, “gcPBM binding intensity (ln)” value 6.95. Against it:
- TATGTATGTATGTATGTATGCATGTCTAACACCTAA [TGCATGCA_site360] — higher, 7.27
- AAAAAGAAAAAAGAAAGTACAAATATACACATTTTT [XGTACX_site3343] — lower, 6.65
- TTTTTATTATAAGGTCGTACAATTGTAATTATTGTA [XGTACX_site1413] — higher, 7.1
- AAAAAACACGGACACACACACATATACATACATACA [CACACA_site5470] — higher, 7.75
- AATATAAATAATGTTAAACACACATACCGATATATA [CACACA_site8869] — the same, 6.95
- ATTTATAGAGCTATATGTACATATATATATATTATT [XGTACX_site3704] — higher, 7.28
- AAAAGGTGGAAAAATGCATGCAGGCTATTCTATATA [TGCATGCA_site1034] — lower, 6.7
- AATTACATATAATACTGTACGCTAATAAGAAAAAAA [XGTACX_site7413] — higher, 7.1
- TTCCACCAATATATATGTACTTATAATATATATATA [XGTACX_site8700] — higher, 8.56
- ATATAAATAAAGAAATATATATATATATATATATAT [GTGCAC_negctrl_site668] — higher, 9.28
- AACGCTTATTAGTTGTTGTATATGTGTTCACATATT [CACACA_negctrl_site379] — lower, 6.79
- ACAATATAGATTAAAAGTACAAATAGTAAATTATAT [XGTACX_site3165] — higher, 7.08
- AAAACAATATACTGTAGTACTGATGATATATATATA [XGTACX_site7798] — higher, 8.93
- TCTTAAATATATAAATTGAAAAATATAAAAGTAATA [CACACA_negctrl_site1558] — higher, 7.01
- ATAAAAAAAAATAGCACACATAAATATATTATATAT [CACACA_site767] — higher, 6.97
- AATCATCTCATAAAAATTAATTAGTGTATGTCTTTT [TGCATGCA_negctrl_site416] — lower, 6.81
- CTACTTATAAATAGAACACACATAAGTGTATTTGTA [CACACA_site3759] — lower, 6.87
- TAATTATGTATGAACTGTACAGGTTATTTTATTTTA [XGTACX_site5204] — lower, 6.89
- TAAAATTTAAATTATACACACTTAAGTAACATCATC [CACACA_site4450] — higher, 7.12
- AAAAAATACCTCTATAGTACATATATATAATATTTA [XGTACX_site7222] — lower, 6.9
- AAAAAAAATTTATTTGCATGCAAAAAAAAAAAAAAA [TGCATGCA_site67] — lower, 6.94
- AAGCCCATTATTAAATGTACAAAATTTTATAAACTA [XGTACX_site7800] — lower, 6.87
- TAAAACATATATACAAGTACACAAAGGATATATATA [XGTACX_site3710] — higher, 7.27
- GTATATATGTATATATGTACATATATATAATATATT [XGTACX_site56] — higher, 7.3
- CAGTGCCAAATTAGCACACACATATATACATGAATT [CACACA_site2814] — higher, 7.37
- TATAGGTATTTATATACACACATATTCTTTTTACAC [CACACA_site6686] — higher, 7.13
- TTTTGTTATGGTTTGATGCACTTATATATAAATATT [GTGCAC_site9705] — higher, 8.14
- ATGTAGATAAAACGTGTGCACATGTTTTTTGTTATT — higher, 8.7
- CACAGTGATATAAAAACACACATGAATTATAATTTC [CACACA_site1667] — lower, 6.88
- ATATATATATATATATGTACTTATTACCAATGTTAG [XGTACX_site1896] — higher, 9.6
- ATTTAAATACAAAATTGTACTTTTCTATATTTAACA [XGTACX_site6146] — higher, 7.22
- ACCCATTTAACAAAATGTACATTATTATAATTACTT [XGTACX_site7105] — higher, 7.2
- AAATTTTAAATAGTATGTACGTATGAAATATATATG [XGTACX_site7511] — higher, 7.58
- TTTGGAAAAAAATTATTTAAACGATATGAATTGATG [XGTACX_negctrl_site506] — higher, 7.09
- AAAATTTTACAGAAGGTGCGTATATTTTCCTGCTTA [GTGCAC_site9643] — higher, 9.88
- CTTACCAAAAGACACACACACACAAGATATATAAAT [CACACA_site6964] — higher, 7.08
- AAATTAAAATAAAAATGTACATATAAAGACACAACT [XGTACX_site3132] — higher, 7.19
- TACAATATTTTGAGACGTACATATATACATTTACAT [XGTACX_site5880] — higher, 6.99
- TGAACTTACTTGGACATACACACATATATATATATA [CACACA_site2977] — higher, 9.74
- TATATATATATACCAACACACATACAGATATATATA [CACACA_site5060] — higher, 9.36
- TTTATATACAAAAATGCACACGAAAAGTAATATATA [CACACA_site9387] — higher, 7.77
- TGTAAGTCGTTATAAGCACACACATAAATAAAAATA [CACACA_site8448] — higher, 7.16
- CATTTAGTTCATACTATGCACACTACGTATATTTTT [CACACA_site2694] — higher, 7.23
